# Measured values reported in PubChem BioAssay AID686979 (National Center for Advancing Translational Sciences (NCATS), 2013).
# Out of some 420,000 compounds screened, about 50,000 (12%) were called active. The inconclusive results got no clear call from the source; some entries with a clear call stand among them for comparison. Calls come from the whole dose curve; as a rule, active = well fitted inhibition curve with a large enough effect; inconclusive = small, poorly fitted or top-dose-only effect; inactive = flat fitted curve, though single readings scatter. No potency is given beside an inconclusive call; the fits are too rough.
# Experiment: qHTS for Inhibitors of human tyrosyl-DNA phosphodiesterase 1 (TDP1): qHTS in cells in presence of CPT; note: nearly all actives have a fitted effect of over 55% in size
# Settings: chicken DT40 Tdp1-/-;hTDP1 cells + 20 nM CPT, ATP luminescence, 48 h; series mostly up to 46.2 µM
# Outline: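 Cell growth measured by CellTiter-Glo luminescence after a minimum 48 h, 37 C compound exposure with 20 nM CPT in Tdp1-knockout DT40 cells stably expressing hTDP1, seeded 400/well; qHTS titration format.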
# Potency is the fitted concentration of half-maximal effect; tags give direction and shape of the fitted curve.
row,SMILES,Potency
1,Cc1cccc(CNC(=O)c2ccc(NC(=O)C3=CSCCO3)cc2)c1,"inconclusive [inhibitor, single point]"
2,CCN(CC1CCCN(CCc2cccc(F)c2)C1)C(=O)c1ccc(CSC)o1 (stereo unspecified),"inconclusive [inhibitor, single point]"
3,Oc1c(Cl)cc(Cl)cc1C=Nc1cc(C(F)(F)F)ccc1N1CCc2ccccc2C1,"inconclusive [inhibitor, single point]"
4,CCSc1n[nH]c2nc3c(c(=O)n12)C1(CCCC1)Cc1ccccc1-3,"inconclusive [inhibitor, partial curve]"
5,COc1ccc(OC)c(NC(=O)C(=O)NNC(=O)COc2ccc(Br)cc2C)c1,"inconclusive [inhibitor, single point]"
6,CC1CCN(c2nc3ccc(C(=O)NCCCN4CCCCC4)cc3s2)CC1,"inconclusive [inhibitor, partial curve]"
7,CCOC(=O)c1cc(C#N)c(Oc2ccc(F)cc2)nc1-c1ccccc1,"inconclusive [inhibitor, partial curve]"
8,Cc1ccnc(NS(=O)(=O)c2ccc(NC(=O)c3ccc([N+](=O)[O-])s3)cc2)n1,"inconclusive [inhibitor, single point]"
9,O=C(CCCCCCCC(=O)N1CCCCCC1)N1CCCCCC1,active: 23.1 µM
10,O=C(CSc1nccn1Cc1ccccc1)Nc1nc2ccccc2s1,"inconclusive [inhibitor, partial curve, poor fit]"
11,COc1ccc(OC)c(NC(=O)COCc2cc(-c3ccco3)on2)c1,"inconclusive [inhibitor, single point]"
12,CCOC(=O)c1cc(-c2ccccc2)n(CCC(=O)NCCc2ccc(C)cc2)c1C,active: 14.6 µM
13,CCOC(=O)c1c(C)n(C)c2cc(OCCN(CC)CC)ccc12,inactive
14,Cc1cc(=O)oc(C)c1C(=O)NCCN1CCOCC1,inactive
15,CCOC(=O)Cc1nc2ccccc2[nH]1,inactive
16,CN1CCN(C2CCCCC2NS(=O)(=O)c2ccc(Cl)cc2)CC1 (stereo unspecified),inactive
17,CCN(CC)C(=O)C(=O)N/N=C/c1ccc(Br)cc1,inactive
18,O=C(Cn1c(-c2ccccc2)noc1=O)N1CCC(Cc2ccccc2)CC1,"inconclusive [inhibitor, single point]"
19,Cc1nn(C)c(C(=O)Nc2cccc(CN3CCOCC3)c2)c1Br,"inconclusive [inhibitor, partial curve]"
20,COc1ccc(N2CCN(C(=O)c3ccc(Br)o3)CC2)cc1,inactive
21,Cc1cc2c(n1-c1ccc(C(=O)NCCc3ccc(Cl)cc3)cc1)CCC(C)C2 (stereo unspecified),active: 25.9 µM
22,CN1CCN(c2nc(-c3cccs3)cc(C(F)(F)F)n2)CC1,"inconclusive [inhibitor, single point]"
23,CN(C)c1ccc(N=Cc2ccnc3ccccc23)cc1,active: 10 µM
24,Cc1nc2c(OCc3ccccc3)cccn2c1N(C)C(=O)C1CCCCC1,"inconclusive [inhibitor, single point]"
25,CCc1ccc2oc(C(=O)Nc3nc(-c4ccc(F)cc4)ns3)c(C)c2c1,"inconclusive [inhibitor, single point]"
26,CCc1ccccc1NC(=O)CN(C)C(=O)Cn1cnc2ccc(Cl)cc2c1=O,inactive

row,SMILES,Potency
1,CS(=O)(=O)N1CCC(C(=O)Nc2ccccc2Br)CC1,inactive
2,O=C(Oc1ccc(C(=S)N2CCOCC2)cc1Cl)c1ccccc1F,inactive
3,CCOc1ccc(S(=O)(=O)N2CCCC(C(=O)NCc3ccccn3)C2)cc1 (stereo unspecified),inactive
4,COc1ccccc1CNC(=O)Cn1cc(Br)ccc1=O,inactive
5,CN(C(=O)CSc1nc2sc3c(c2c(=O)n1C)CCC3)C1CCS(=O)(=O)C1 (stereo unspecified),inactive
6,CC(=O)c1c(C)[nH]c(C(=O)OCC(=O)Nc2cc(C(F)(F)F)ccc2N2CCOCC2)c1C,"inconclusive [inhibitor, single point]"
7,O=C(COC(=O)c1ccccc1C(=O)c1ccc(Cl)c([N+](=O)[O-])c1)NC1CC1,active: 18.4 µM
8,O=C1NC[C@H](CCCCN2C[C@@H](Cc3ccccc3)N(Cc3ccccc3)C(=O)C2=O)N(CCC2CCCCC2)C1=O,inactive
9,Cc1c(C2=CCN(S(=O)(=O)c3ccc(Cl)cc3)CC2)c2ccccc2n1CC(=O)N1CCCC1,"inconclusive [inhibitor, single point]"
10,COc1ccc(-c2coc3ccc(OC4OC(COC(C)=O)C(OC(C)=O)C(OC(C)=O)C4OC(C)=O)c(OC(C)=O)c3c2=O)cc1 (stereo unspecified),"inconclusive [inhibitor, partial curve]"
11,Cc1nnc2c(NC3CCCC3)nc3ccccc3n12,inactive
12,O=C1N=C(N2CCC(Cc3ccccc3)CC2)S/C1=C/c1cn[nH]c1-c1ccccc1,"inconclusive [inhibitor, single point]"
13,O=C(Nc1nc2ccccc2s1)Nc1ccc(F)cc1F,inactive
14,CCc1nc2ccc(C(=O)N(CC)CCN(C)C)cn2c1N(CC)CCOC,inactive
15,OC(CBr)C[n+]1cccc2cc(Br)ccc21 (stereo unspecified),active: 4.47 µM
16,CC12CCC(C(=O)N(CC(=O)O)C1=O)C2(C)C (stereo unspecified),inactive
17,Cc1ccc(C(=O)N2CCCCC2)cc1S(=O)(=O)N1CCCCCC1,"inconclusive [inhibitor, single point]"
18,O=C(CC1(O)C(=O)N(CCc2ccccc2)c2ccc(Br)cc21)c1ccccc1 (stereo unspecified),"inconclusive [inhibitor, single point]"
19,COC(=O)N/N=C/c1ccc(-c2cc(Cl)ccc2Cl)o1,inactive
20,CCOC(=O)NN1C(=O)c2ccccc2NC1c1ccccc1O (stereo unspecified),active: 16.4 µM
21,CC1CC(C)(C)NC(=S)N1CCC(=O)N1CCc2ccccc21 (stereo unspecified),"inconclusive [inhibitor, single point]"
22,O=C(C1CCN(S(=O)(=O)c2ccc(-n3cnnn3)cc2)CC1)N1CCN(c2ccccc2)CC1,"inconclusive [inhibitor, single point]"
23,C=CCC(NCc1ccccc1)c1ccc(Cl)cc1 (stereo unspecified),"inconclusive [inhibitor, single point]"
24,Cc1noc(C)c1-c1nccc(N(C)C)n1,inactive
25,Cn1c(=O)oc2cc(S(=O)(=O)NCCC(=O)N3CCN(c4ccccc4F)CC3)ccc21,"inconclusive [inhibitor, single point]"
26,CCOc1ccccc1CNC(=O)C1CCN(c2nnc(C)c3c(C)n(-c4ccc(C)cc4)nc23)CC1,active: 5.8 µM

row,SMILES,Potency
1,CC(=O)NCc1ccc(C(=O)CCl)s1,active: 0.517 µM
2,CCCN1C(C)C(C(=O)OCC)=CN(Cc2cccc(I)c2)S1(=O)=O (stereo unspecified),"inconclusive [inhibitor, single point]"
3,CNC(=O)c1ccc(-c2nc(CN3CCc4ccccc43)c(C)o2)cc1,"inconclusive [inhibitor, single point]"
4,CC(=O)Nc1ccc(Nc2nc3ccc(Cl)cc3n3cnnc23)cc1,inactive
5,CC(=O)c1cc(F)c(N2CCN(C(=O)C(C)(C)C)CC2)cc1C,active: 20.6 µM
6,Cc1cc(Br)ccc1NC(=O)CN1C(=O)C2C3CC(c4ccccc4)C(C3)C2C1=O (stereo unspecified),"inconclusive [inhibitor, partial curve]"
7,COCCC(=O)N1CCC(Oc2ccc(C(=O)N(C)C3CCCCC3)cc2)CC1,inactive
8,Clc1ccccc1CN(Cc1ccccc1)C(c1cccs1)c1nnnn1C1CCCC1 (stereo unspecified),"inconclusive [inhibitor, single point]"
9,COc1ccc(N(Cc2nnc3n2CCCCC3)C(=O)Nc2ccc(Cl)cc2)cc1Cl,inactive
10,Cn1cnnc1SCC(=O)Nc1ccc2nc(SCc3cccc4ccccc34)sc2c1,active: 23.1 µM
11,CN1CCc2c(sc3c2c(=O)n(-c2ccc(Cl)cc2)c2nncn32)C1,"inconclusive [inhibitor, single point]"
12,COc1ccc(C(=O)NCCCNc2nc3cc(C)cc(C)c3cc2C#N)cc1,"inconclusive [inhibitor, single point]"
13,CCc1cccc(C)c1NC(=O)c1cc(C)oc1C,"inconclusive [inhibitor, single point]"
14,CC(=O)Nc1ccc(S(=O)(=O)NC2(C(F)(F)F)C(=O)NC(C)=C2C#N)cc1 (stereo unspecified),inactive
15,CCC1CCCCN1C(=O)CSc1n[nH]c(-c2ccccc2)n1 (stereo unspecified),"inconclusive [inhibitor, partial curve]"
16,Cc1ccc(C(=O)c2cn[nH]c2-c2ccccc2O)cc1,"inconclusive [inhibitor, single point]"
17,O=C(NCc1ccccc1F)C12CC3CC(CC(C3)C1)C2,inactive
18,CCC(=O)Nc1ccc(S(=O)(=O)N2CCc3ccccc3C2)cc1,"inconclusive [inhibitor, partial curve, poor fit]"
19,Fc1ccccc1-n1ncc2c1ncn1nc(COc3ccc(Cl)cc3)nc21,"inconclusive [inhibitor, single point]"
20,COc1ccccc1CNC(=O)c1cc(S(=O)(=O)N2CCCCCC2)cn1C,inactive
21,CC(C)NC(=O)c1c(O)c2cccc3c2n(c1=O)CCC3,"inconclusive [inhibitor, partial curve, poor fit]"
22,N/C(=N\OC(=O)c1ccccc1Cl)c1cccc([N+](=O)[O-])c1,inactive
23,Cc1cc(C)cc(OCC(=O)NC(C)c2ccccc2)c1 (stereo unspecified),inactive
24,COc1ccc(C2c3[nH]c4ccccc4c3CCN2CCCn2cccn2)c(F)c1 (stereo unspecified),"inconclusive [inhibitor, single point]"
